# Assay results reported in article PMC12136788.
# The list shows a part of the results.
# T1: UNK ZnF1-3 (human, UniProt Q9C0B0 31-174)
# T1 sequence: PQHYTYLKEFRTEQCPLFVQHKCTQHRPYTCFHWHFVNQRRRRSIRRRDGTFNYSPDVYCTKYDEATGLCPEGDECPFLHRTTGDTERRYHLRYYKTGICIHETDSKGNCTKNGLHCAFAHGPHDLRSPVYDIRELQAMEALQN
# B1: 70285164_70285284_80_3pUTR_ENSMUSG00000043998_ENSMUST00000060579|mouse|control|control (ssRNA)
# RNA: GGGAGUUCUACAGUCCGACGAUCGCGUCCUCUGCGCGCUCAUCCUUGCUCGCACGGCGGAACGGCGACACCGAACGCCGCAGCCUCGCCCCGCUCCGGCAGCGACCGCUCUGACAAGCCGCGACUGGCCUGCGAGCGCCCGGGCAACAGAGGAUUGAGCAUCA
# B2: chr12:105553856:105553857:+_ENSG00000136051_ENST00000332180|hu_mus|motif|central (ssRNA)
# RNA: GGGAGUUCUACAGUCCGACGAUCAAUGAUAUAGAAAUUUCGGAGAUGUAUAUUCUUUGGCCUUCGAAAUUCUGGAGCAAAAACAUCGGCAAGCAUUUUGAAAUAUUCUGUACCUUCAGCAGAGUUCCGUGUAUGAUCACUGAGCAACAGAGGAUUGAGCAUCA
# B3: chr3:37096630:37096631:-_ENSG00000093167_ENST00000421276|perfect_dup|FALSE|FALSE (ssRNA)
# RNA: GGGAGUUCUACAGUCCGACGAUCUUGCUCCAAGGUAGUUAUAUCCUGUUCUGCUUUUGAAAGCUUAAAUUUGUAUUCGCUAAUUUGUCUAUUGGCAUCUCUCUGCAUUUCGAUGAACUGCAAGUCUGAGCCAUUCUGCAGUCCCAACAGAGGAUUGAGCAUCA
# B4: chr3:41268740:41268741:+_ENSG00000168036_ENST00000349496|perfect_dup|FALSE|FALSE (ssRNA)
# RNA: GGGAGUUCUACAGUCCGACGAUCCACUCUGCUUGUGGUCCACAGAAGCUUCUCAUAAGUGUAGGUCCUCAUUAUGUUUACUAAGGCUUGGGGUCCACCACUGGCCAGAAUGAUGAGCUUGCUCUCUUGAUUGCCAUAAGCUAACAACAGAGGAUUGAGCAUCA
# B5: chr16:45382771:45382772:-_ENSMUSG00000022661_ENSMUST00000163230|mus_hu|motif|central (ssRNA)
# RNA: GGGAGUUCUACAGUCCGACGAUCCUGGGUCAUGUUAUAAGACAAAUGGACAGGGAGGGCAUGCUUCUCAAAAAAUGUGAGCGGUUGUCUAAGACUAACAAUAUUUAUCUAGCUAUAAAAAUAAGUUAAAUGAAUAAGUUAAGACAACAGAGGAUUGAGCAUCA
# B6: 197562582_197566200_1244_3pUTR_ENSG00000186001_ENST00000438796|human|control|control (ssRNA)
# RNA: GGGAGUUCUACAGUCCGACGAUCUGGUGAACCCUCAUGAGAGAUUCGCCGCUGUUCAAUAUACGCCAUAAACUGUGAACUAAGGCUGUCUGGGUCUGGUCCCUUGGGCUGUCUCACCUCGGCCUCCUCUUCCUCUGCGGUGCACAACAGAGGAUUGAGCAUCA
# B7: chr15:64980993:64980994:-_ENSG00000180304_ENST00000326005|hu_hu|FALSE|FALSE (ssRNA)
# RNA: GGGAGUUCUACAGUCCGACGAUCAACCAUGAACAUCACAUCUGGCCGAGAGGGGACACAGGGAUGGCCUGGACGUACAAUCUCAAAGCCCAAGAAGCUGAAGGUCUUCAGGAGUGGAGCUCUGUCUUCUCGGCCCUUCCUGAACAACAGAGGAUUGAGCAUCA
# B8: chr6:52962840:52962841:+_ENSG00000112146_ENST00000323557|hu_mus|motif|central (ssRNA)
# RNA: GGGAGUUCUACAGUCCGACGAUCACAACAAAAGUGUCCUUAACAACUUCUAAUUUCAAAACAAAGUACCCCAGGAAUCAACGGUCCUUUUAAAUAAAAAAAAUAAUUUAUACUCUUCUUAAAGGAAUUCCAACAACUUAAAGUCAACAGAGGAUUGAGCAUCA
# B9: chr2:136513182:136513183:+_ENSG00000144224_ENST00000272638|hu_hu|FALSE|FALSE (ssRNA)
# RNA: GGGAGUUCUACAGUCCGACGAUCAUCAGAAGUGGGUGGUAUCUCACAAAGCUCUGCAUUUCUGGACUGAGAGUUUUCACAAGUGUUGUUAGGUUCAAAUGACGCAGAUGGAGUAGACACUGAACUUUCUGACUGACUGCCAUUCAACAGAGGAUUGAGCAUCA
# B10: chr5:37680062:37680063:+_ENSMUSG00000029121_ENSMUST00000031004|mus_hu|mus_mus_mus_hu_False|48_88 (ssRNA)
# RNA: GGGAGUUCUACAGUCCGACGAUCUUUGGGUGUAGCUGGUACCUCGUACACAGGCCCGUCAUACAUGCCCCUGGAAACCCCUUGCAACCCGAAAACCUUAUUCCUGAUUUUGACGCGCUGGUACAGGUGCUCCGGGAACGCCUUCAACAGAGGAUUGAGCAUCA
# B11: 118513148_118513779_6995_CDS_ENSG00000172869_ENST00000311085|human|control|control (ssRNA)
# RNA: GGGAGUUCUACAGUCCGACGAUCUGCUGUGAGAAUCUCACAGAGCAAGACUGUAAGCCCUGACUGGGCUUCCUCGCCAGAAGAAUUCAAAAGUCGAAUUAGACAAGUUAUUCCUGGCCAUUGAGCUGGUGACGUAUUGGGAGUCAACAGAGGAUUGAGCAUCA
# B12: chr1:156945260:156945261:-_ENSMUSG00000056708_ENSMUST00000055322|mus_hu|FALSE|FALSE (ssRNA)
# RNA: GGGAGUUCUACAGUCCGACGAUCUCCCCGGAGAACGAAUGGGGAACUCCCCGGCCCAAACCUUUUAGCCGCUUCCUUCUCCACGCAGCCGGCAGAGGAAAGUCCCUGUCUGCCCCCAAUCUCUUAAACCCUGGGGAAGGAGUGCAACAGAGGAUUGAGCAUCA
# B13: chrX:98838459:98838460:+_ENSMUSG00000034160_ENSMUST00000044475|mus_mus|motif|central (ssRNA)
# RNA: GGGAGUUCUACAGUCCGACGAUCUCCCAAAUUCGAAUAGGCUUCUGCUAGAAGGGGAUUCUGUUUAAUUGCCAAGGUGCGGAAAUGAGCAGAUCUGUCCAGCCUUCGACACUGGAAGUGUAUAGAUGAAAGUAAUAAAAGAACCAACAGAGGAUUGAGCAUCA
# B14: chr17:65740002:65740003:+_ENSG00000130935_ENST00000581375|hu_hu|hu_hu_hu_mus_False|78_108 (ssRNA)
# RNA: GGGAGUUCUACAGUCCGACGAUCAACCCGUUCUUGCUCCCUGGACGAACAGGAAGACAUAAAAGAGAAAAAAUAUAUAUCCAUCAAGUUAGGUGUGGUGGCCACACCUUUACUCCCAGCACUUUGGGAGGUGGAUCUCUGAGUCAACAGAGGAUUGAGCAUCA
# B15: chr11:29608385:29608386:+_ENSMUSG00000020458_ENSMUST00000102843|mus_mus|motif|central (ssRNA)
# RNA: GGGAGUUCUACAGUCCGACGAUCGUCAGUGUACUCCUUAGGAGAAUCAUCUUUAGCACUGACAAAUGUGGGAAACUCAUCGGUUAUCUCAAUGGGAGAUGAAUCGGAAAAUGUUUCACUUUCUUUCAUUUUGUCUUCCUUAGACAACAGAGGAUUGAGCAUCA
# B16: chr4:175158536:175158537:-_ENSG00000164117_ENST00000503293|hu_hu|motif|central (ssRNA)
# RNA: GGGAGUUCUACAGUCCGACGAUCGCUUGAUUGUAUACUCAGGCUACAAUGACCAGCACUGAUGUAACCCCCAUAUCUGCGGAGUCCUUGGGUAGCUUUAGUCUGAAGUAAAAACUGAAGUCCUAGCAAUUGUGCUUUUUAUGCCAACAGAGGAUUGAGCAUCA
# B17: chr16:68260615:68260616:+_ENSG00000072736_ENST00000346183|hu_hu|motif|central (ssRNA)
# RNA: GGGAGUUCUACAGUCCGACGAUCGAAACAAGAGAGCCUGCUGCAUUCACACUCAAAGCACCCAUCAUAUAAAAGUAUCCGGGUUAAAUAUAAAAAGCAAAGUUCAUUUCCCCAAAGCUCAAACAGCCUAUGCUGCUCCUGUUCCAACAGAGGAUUGAGCAUCA
# B18: chr10:114798999:114799000:-_ENSMUSG00000069520_ENSMUST00000092170|mus_hu|FALSE|FALSE (ssRNA)
# RNA: GGGAGUUCUACAGUCCGACGAUCUCAUCUUUAUAUAUCUUUUGCAUAUAUUGUCGUUAAGAUCUGUCAUGGAAAAUAAGGAUAUGAGCUCCUGCGGGAAAGAAUAUUUAGCGUUUCGGAGAGAAAGUCAUUUACGAUGUGAGCCAACAGAGGAUUGAGCAUCA
# B19: chr1:166823625:166823626:+_ENSG00000143157_ENST00000367875|hu_hu|FALSE|FALSE (ssRNA)
# RNA: GGGAGUUCUACAGUCCGACGAUCUAUUGUUGGGGUCAGUUCCUAUCUACUAGGGAGUACAACUAUAUCUCAAUAUGUGCUAUAGUAAUUCUAGGGUAACAGCCAUUCUGCAAAAUAGUUGUACUGGGGCUCUGUUAGGCAUAGCAACAGAGGAUUGAGCAUCA
# B20: chr9:113828744:113828745:+_ENSMUSG00000033392_ENSMUST00000111838|mus_mus|motif|central (ssRNA)
# RNA: GGGAGUUCUACAGUCCGACGAUCAAGUAAUGUUAUGUACAGUUUUAUUGCCAGUAUAUGCACAACAGUAAGCAUAGAGCGGUAAAUACACAAUGUCAUUAACAGUAGAAAACAAAACUGUUACAGUAGGGAGAGGGUGUGGAGCAACAGAGGAUUGAGCAUCA
# B21: chr9:122046571:122046572:+_ENSMUSG00000038145_ENSMUST00000120173|mus_hu|motif|central (ssRNA)
# RNA: GGGAGUUCUACAGUCCGACGAUCUUGAAAUUUGUUGCUGAACCCAAAGUCUGUCAACUUUACAAGACCUUGUUUUUCAAAGAAGACGGCAUUCUCUGGUUUUAAGUCUCUGUGAACCACAUGGAGUUUAUGGCAAUAAGAUAUCAACAGAGGAUUGAGCAUCA
# B22: chr1:60041781:60041782:+_ENSMUSG00000041040_ENSMUST00000036540|mus_hu|mus_mus_mus_hu_False|8_58 (ssRNA)
# RNA: GGGAGUUCUACAGUCCGACGAUCAAGUUUACAAUAGUAAAGUAAAUGCAGUAGUGGCAAAUUUUCUUUUAUUUUCCUUCCUAAAAGAAAAUCUUUAUAACCCAGUCCUAGUCUUGGACAUAGUGAAUCUCCAUGGGUCUGACUCAACAGAGGAUUGAGCAUCA
# Molecular target: T1, UNK ZnF1-3
# Assay: nsRBNS (natural sequence RNA bind-n-seq); RBNS binding buffer (assumed for nsRBNS): 25 mM Tris pH 7.5, 150 mM KCl, 3 mM MgCl2, 0.01% Triton X-100, 500 ug/ml BSA, 20 U/ml SUPERase-In, 4 C; UNK is unkempt and MSI1 is Musashi-1; names of the RNAs are library labels; protein concentration not given here; high values mean tight binding
row,Binder,binding signal
1,B1,0.379 enrichment R
2,B2,0.766 enrichment R
3,B3,0.628 enrichment R
4,B4,1.19 enrichment R
5,B5,1.44 enrichment R
6,B6,0.641 enrichment R
7,B7,1.19 enrichment R
8,B8,2.15 enrichment R
9,B9,1.04 enrichment R
10,B10,0.693 enrichment R
11,B11,0.737 enrichment R
12,B12,1.08 enrichment R
13,B13,1.23 enrichment R
14,B14,1.03 enrichment R
15,B15,0.265 enrichment R
16,B16,0.687 enrichment R
17,B17,2.9 enrichment R
18,B18,1.41 enrichment R
19,B19,1.34 enrichment R
20,B20,1.28 enrichment R
21,B21,0.854 enrichment R
22,B22,0.811 enrichment R
